31 compounds from PubChem BioAssay AID1745853 (National Center for Advancing Translational Sciences (NCATS), 2022) can be followed below.

Holding throughout (test): Primary Screen for Target Class Profiling of Small Molecule Inhibitors of Methyltransferases
Test [1] concerns the target Glycine N-methyltransferase (Homo sapiens) (UniProt Q14749). As to conditions: purified enzyme, MTase-Glo SAH luminescence; measured here: GNMT inhibition; at 40 µM; stronger effect = lower value. An outline of the steps:
(§1)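 Each enzyme was reacted with SAM and its substrate, with compounds tested once at 40 uM; SAH formed was read by MTase-Glo luminescence.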

Test [2] has as its target Guanidinoacetate N-methyltransferase (Homo sapiens) (UniProt Q14353). As to conditions: purified enzyme, MTase-Glo SAH luminescence; measured here: GAMT inhibition; at 40 µM; stronger effect = lower value. An outline of the steps:
as §1

The target in test [3] is Histamine N-methyltransferase (Homo sapiens) (UniProt P50135). As to conditions: purified enzyme, MTase-Glo SAH luminescence; measured here: HNMT inhibition; at 40 µM; stronger effect = lower value. An outline of the steps:
as §1

Test [4] deals with Nicotinamide N-methyltransferase (Homo sapiens) (UniProt P40261). The conditions noted are these: purified enzyme, MTase-Glo SAH luminescence; measured here: NNMT inhibition; at 40 µM; stronger effect = lower value. An outline of the steps:
as §1

In test [5] the target is Phenylethanolamine N-methyltransferase (Homo sapiens) (UniProt P11086). The conditions noted are these: purified enzyme, MTase-Glo SAH luminescence; measured here: PNMT inhibition; at 40 µM; stronger effect = lower value. An outline of the steps: as §1

Molecules are shown by their SMILES. Where “and” joins values, the source holds several entries; their conditions need not be identical. Equal values may be shown once. This is one part of the list. Shown are side measurements of this screen, not its main read-out; they come without a call.
% is set by controls: 0 for no effect and ±100 for the full control effect.

Take `COc1cc(C(=O)N2CCC(Cc3nc(C(C)C)no3)CC2)cc(OC)c1OC`: the activity change, negative = inhibition is -1.16% in test [1]; 0.774% in test [2]; -0.606% in test [3]; -7.35% in test [4]; -1% in test [5].

On to `O=C(CCc1nnc2n(Cc3ccc(Cl)cc3)c(=O)c3ccccc3n12)NC1CCCCC1`, for which the activity change, negative = inhibition stood at 3.27% in test [1]; 2.88% in test [2]; 11.7% in test [3]; 10.6% in test [4]; 3.32% in test [5].

Take `COc1ccc(C(=O)Nc2sc3c(c2C(N)=O)CCCC3)cc1OC`: the activity change, negative = inhibition in test [2] is 11.3%; in test [4], -7.93%; in test [5], 7.31%.

As to `CCOC(=O)c1cc2n(n1)CC(C)(C(=O)NC1CCCCC1)N(Cc1ccc(OC(C)C)cc1)C2=O` (stereo unspecified), the activity change, negative = inhibition in test [1] was 2.99%; in test [2] it was 0%; in test [3], -0.661%; in test [4] it was -2.71%; in test [5] it was 4.04%.

In the case of `COc1ccc(NC(=O)C(C)Oc2ccc3c(-c4ccccc4)cc(=O)oc3c2)cc1` (stereo unspecified), the activity change, negative = inhibition in test [1] is 0.954%; in test [2], 0%; in test [3], 1.84%; in test [4], 1.83%; in test [5], -1.29%.

Turning to `CC(=O)Nc1c2n(c3ccc(F)cc13)CC(C)(C(=O)NC1CCCCC1)N(Cc1ccccc1)C2=O` (stereo unspecified), the activity change, negative = inhibition in test [1] was -3.01%; in test [2] it was 2.6%; in test [3] it was 3.67%; in test [4], -3.95%; in test [5] it was -2.07%.

With `CNC(=O)N1CCC(C2CCN(C(=O)c3cccs3)C2)CC1` (stereo unspecified), the activity change, negative = inhibition is -1.94% in test [1]; -4.48% in test [2]; 1.17% in test [3]; -4.42% in test [4]; -0.448% in test [5].

Regarding `CCCN1C(=O)c2c(C(=O)NCc3ccc(C)o3)ncn2CC1(C)C(=O)NCCC(C)C` (stereo unspecified), the activity change, negative = inhibition in test [1] was 0.143%; in test [2], 0%; in test [3], 0.759%; in test [4], -0.003%; in test [5], 0.64%.

Turning to `O=C1Nc2ccccc2CC12CCCN2Cc1ccccc1` (stereo unspecified), the activity change, negative = inhibition in test [1] is -4.89%; in test [2], -0.07%; in test [3], -2.51%; in test [4], -3.45%; in test [5], -1.19%.

In the case of `N[C@@H](Cn1ccc(=O)c(O)c1)C(=O)O`, the activity change, negative = inhibition in test [1] was 3.22% and 3.86%; in test [2] it was -1.5% and 13.6%; in test [3], -0.931% and 5.39%; in test [4] it was -12.3% and 0.303%; in test [5], -7.05% and 12.2%.

As to `CN1CCN(CCCNC(=O)c2cc3n(n2)CC(C)(C(=O)NCc2ccccc2)N(C)C3=O)CC1` (stereo unspecified), the activity change, negative = inhibition was 1.86% in test [1]; 4.19% in test [2]; 7.17% in test [3]; 6.13% in test [4]; 4.37% in test [5].

`OC(COc1ccccc1CNCC1CCOCC1)CN1CCSCC1` (stereo unspecified): the activity change, negative = inhibition is -3.13% in test [1]; -4.59% in test [2]; -4.03% in test [3]; -4.44% in test [4]; 0.471% in test [5].

With `COc1cc(O)c2c(=O)c(O)c(-c3ccc(O)c(O)c3)oc2c1`, the activity change, negative = inhibition in test [2] was 2.75%; in test [4], -10.8%; in test [5], -5.2%.

As to `Cc1ccc(Cn2c(=O)c3ccccc3n3c(CCC(=O)NCCC4=CCCCC4)nnc23)cc1`, the activity change, negative = inhibition in test [1] was -6.1%; in test [2], 1.06%; in test [3], 4.15%; in test [4], 4.03%; in test [5] it was -1.59%.

With `O=C(CCc1nnc2n(Cc3ccc(F)cc3)c(=O)c3ccccc3n12)N1CCC(N2CCCCC2)CC1`, the activity change, negative = inhibition in test [1] was 3.55%; in test [2], 0%; in test [3], -50.9%; in test [4] it was 8.6%; in test [5] it was 1%.

On to `CC(N)(Cc1ccc(O)c(O)c1)C(=O)O` (stereo unspecified), for which the activity change, negative = inhibition in test [1] is -51.3%; in test [2], 6.84%; in test [3] it was -2.67%; in test [4] it was -4.62%; in test [5] it was 5.69%.

Regarding `CCN1C(=O)c2cc(C(=O)Nc3ccc(C)cc3C)nn2CC1(C)C(=O)NC1CCCC1` (stereo unspecified), the activity change, negative = inhibition in test [1] was 2.02%; in test [2], 0.714%; in test [3], -5.29%; in test [4], 2.17%; in test [5], 1.12%.

In the case of `CCOc1ccc(CN2C(=O)c3cc(-c4ccccc4)nn3CC2(C)C(=O)NCc2ccccc2OC)cc1` (stereo unspecified), the activity change, negative = inhibition worked out at 9.57% in test [1]; 2.97% in test [2]; 7.18% in test [3]; 8.41% in test [4]; 3.2% in test [5].

As to `COCCN1CC(c2n[nH]c(C3CCOCC3)n2)CCC1=O` (stereo unspecified), the activity change, negative = inhibition in test [1] is -2.86%; in test [2], 3.05%; in test [3] it was -0.716%; in test [4], -6.77%; in test [5], -5.64%.

Consider `O=C(CCn1ccc2cc(S(=O)(=O)N3CCCC3)ccc21)NCc1cccc(F)c1`, for which the activity change, negative = inhibition in test [1] was 7.76%; in test [2], 0.535%; in test [3], 8.27%; in test [4] it was 12.4%; in test [5], 6.49%.

On to `CCOC(=O)C1(Cc2ccccc2F)CCCN(C(=O)c2ccc3c(c2)OCCO3)C1` (stereo unspecified), for which the activity change, negative = inhibition is -6.74% in test [1]; -2.92% in test [2]; -2.62% in test [3]; -11.1% in test [4]; -1.67% in test [5].

As to `Cn1cccc1CN1CCC2(CC1)COc1ccccc1[S+](=O)([O-])N2`, the activity change, negative = inhibition in test [1] was -8.91%; in test [2] it was -7.18%; in test [3], -7.51%; in test [4], -7.85%; in test [5], -14.5%.

For the compound `COCCCN1CC2(CCC1=O)CCN(C(=O)Nc1ccccc1F)CC2`, the activity change, negative = inhibition was -5.92% in test [1]; -4.99% in test [2]; -1.21% in test [3]; -11.4% in test [4]; -12.9% in test [5].

With `CC1=C(CCC(C)CC(=O)O)[C@@]2(C)CCCC(C)(C)C2CC1=O` (stereo partly specified), the activity change, negative = inhibition in test [1] is -1.88%; in test [2] it was -1.12%; in test [3], 6.99%; in test [4] it was -16.1%; in test [5], -7.76%.

Turning to `O=C(/C=C/c1ccccc1)O[C@@H]1[C@@H](CO)O[C@@](CO)(O[C@H]2O[C@H](CO)[C@@H](O)[C@H](O)[C@H]2O)[C@H]1O`, the activity change, negative = inhibition in test [1] was 1.97%; in test [2], 6.77%; in test [3], 4.84%; in test [4], -5.58%; in test [5], 4.67%.

For `CCCCc1nc(C)c(CC(=S)N(C)C)c(=O)n1Cc1ccc(-c2ccccc2-c2nn[nH]n2)cc1`, the activity change, negative = inhibition in test [1] was -6.76%; in test [2], -9.99%; in test [3], 7.92%; in test [4], -28.4%; in test [5], -6.08%.

Regarding `CCN1C(=O)c2cc(C(=O)NCCCN3CCc4ccccc4C3)nn2CC1(C)C(=O)NC1CCCC1` (stereo unspecified), the activity change, negative = inhibition in test [1] is 4.24%; in test [2], 0.056%; in test [3] it was -3.71%; in test [4] it was 11.7%; in test [5], 2.39%.

Turning to `CC(C)(C)c1cc2n(n1)CC(C)(C(=O)NCc1ccccc1)N(Cc1ccccc1Cl)C2=O` (stereo unspecified), the activity change, negative = inhibition in test [1] is 4.9%; in test [2], 0%; in test [3], 5.21%; in test [4], -6.44%; in test [5], 3.95%.

Take `COc1cccc(CNC(=O)Cn2nc3n(Cc4ccccc4)c(=O)c4ccccc4n3c2=O)c1`: the activity change, negative = inhibition in test [1] turned out to be 1.77%; in test [2], 0%; in test [3], 3.05%; in test [4], 1.44%; in test [5], 1.89%.

Regarding `CC1=C(C(=O)O)/C(=C\CO[C@@H]2O[C@H](CO)[C@@H](O)[C@H](O)[C@H]2O)C(OC(=O)/C=C\c2ccc(O)cc2)C1` (stereo partly specified), the activity change, negative = inhibition in test [1] was 3.34%; in test [2] it was 1.92%; in test [3] it was 7.42%; in test [4] it was -8.84%; in test [5], -0.254%.

Turning to `Cc1ccc(C)c(C(=O)CSc2nnc3n(CC(C)C)c(=O)c4ccc(C(=O)NC(C)C)cc4n23)c1`, the activity change, negative = inhibition in test [1] was 2.87%; in test [2] it was -1.21%; in test [3], 2.47%; in test [4] it was 12.7%; in test [5], 4.65%.
